Test results: publication PMC12102759 (2025)

B1: CAPRIN1 peptide 364-379 (Caprin-1), 16-mer library wild type / G3BP1 NFT2 (G3BP1 NTF2 domain, […]) (parent complex)
chain 1: AQMQGPYNFIQDSMLD
chain 2: not shown

Variants of: B1
Assay: proteomic peptide phage display deep mutational scan (ProP-PD DMS): M13 P8 16-mer library selected against immobilised GST-tagged bait for four days (rounds), NGS of the eluted pools per day and pseudo-replica; bait immobilised on MaxiSorp plates (10 µg), library pre-cleared on GST, 2 h binding at 4 °C, five washes; one round per day, days 1-4; value from days 2 and 3

First: chain 1 P6A
Second: chain 1 A1R
The screen value of the first is higher: 0.00823 average fractional NGS count over selection days 2 and 3 (reads of this peptide / all reads for the bait, averaged over … for the first, 0.000399 average fractional NGS count over selection days 2 and 3 (reads of this peptide / all reads for the bait, averaged over … for the second.

First: chain 1 I10G
Second: chain 1 D12M
The screen value of the first is lower: 0.000373 average fractional NGS count over selection days 2 and 3 (reads of this peptide / all reads for the bait, averaged over … for the first, 0.000821 average fractional NGS count over selection days 2 and 3 (reads of this peptide / all reads for the bait, averaged over … for the second.

Going from chain 1 M14Q to chain 1 D12T, the screen value falls from 0.0024 average fractional NGS count over selection days 2 and 3 (reads of this peptide / all reads for the bait, averaged over … to 0.000399 average fractional NGS count over selection days 2 and 3 (reads of this peptide / all reads for the bait, averaged over ….

Compared with chain 1 L15V, chain 1 I10T is higher in screen value: 0.000519 average fractional NGS count over selection days 2 and 3 (reads of this peptide / all reads for the bait, averaged over … for the first, 0.00177 average fractional NGS count over selection days 2 and 3 (reads of this peptide / all reads for the bait, averaged over … for the second.

Going from chain 1 D12A to chain 1 F9D, the screen value falls from 0.00629 average fractional NGS count over selection days 2 and 3 (reads of this peptide / all reads for the bait, averaged over … to 0.000882 average fractional NGS count over selection days 2 and 3 (reads of this peptide / all reads for the bait, averaged over ….

First: chain 1 M14T
Second: chain 1 A1T
The screen value of the first is lower: 0.000321 average fractional NGS count over selection days 2 and 3 (reads of this peptide / all reads for the bait, averaged over … for the first, 0.000526 average fractional NGS count over selection days 2 and 3 (reads of this peptide / all reads for the bait, averaged over … for the second.

Going from chain 1 Q2E to chain 1 P6W, the screen value falls from 0.0332 average fractional NGS count over selection days 2 and 3 (reads of this peptide / all reads for the bait, averaged over … to 0.00221 average fractional NGS count over selection days 2 and 3 (reads of this peptide / all reads for the bait, averaged over ….

First: chain 1 G5A
Second: chain 1 G5K
The screen value of the first is higher: 0.000425 average fractional NGS count over selection days 2 and 3 (reads of this peptide / all reads for the bait, averaged over … for the first, 0.000245 average fractional NGS count over selection days 2 and 3 (reads of this peptide / all reads for the bait, averaged over … for the second.

Compared with chain 1 Q2L, chain 1 G5L is lower in screen value: 0.00213 average fractional NGS count over selection days 2 and 3 (reads of this peptide / all reads for the bait, averaged over … for the first, 0.000325 average fractional NGS count over selection days 2 and 3 (reads of this peptide / all reads for the bait, averaged over … for the second.

First: chain 1 Q4A
Second: chain 1 M3D
The screen value of the first is higher: 0.00278 average fractional NGS count over selection days 2 and 3 (reads of this peptide / all reads for the bait, averaged over … for the first, 0.00185 average fractional NGS count over selection days 2 and 3 (reads of this peptide / all reads for the bait, averaged over … for the second.

First: chain 1 G5F
Second: chain 1 Q4Y
The screen value of the first is higher: 0.0278 average fractional NGS count over selection days 2 and 3 (reads of this peptide / all reads for the bait, averaged over … for the first, 0.00105 average fractional NGS count over selection days 2 and 3 (reads of this peptide / all reads for the bait, averaged over … for the second.

First: chain 1 N8V
Second: chain 1 D12S
The screen value of the first is higher: 0.00509 average fractional NGS count over selection days 2 and 3 (reads of this peptide / all reads for the bait, averaged over … for the first, 0.00438 average fractional NGS count over selection days 2 and 3 (reads of this peptide / all reads for the bait, averaged over … for the second.

First: chain 1 I10V
Second: chain 1 P6N
The screen value of the first is lower: 0.000435 average fractional NGS count over selection days 2 and 3 (reads of this peptide / all reads for the bait, averaged over … for the first, 0.00292 average fractional NGS count over selection days 2 and 3 (reads of this peptide / all reads for the bait, averaged over … for the second.

Going from chain 1 P6G to chain 1 I10W, the screen value rises from 0.000611 average fractional NGS count over selection days 2 and 3 (reads of this peptide / all reads for the bait, averaged over … to 0.0157 average fractional NGS count over selection days 2 and 3 (reads of this peptide / all reads for the bait, averaged over ….

First: chain 1 D12N
Second: chain 1 P6T
The screen value of the first is lower: 0.00209 average fractional NGS count over selection days 2 and 3 (reads of this peptide / all reads for the bait, averaged over … for the first, 0.00679 average fractional NGS count over selection days 2 and 3 (reads of this peptide / all reads for the bait, averaged over … for the second.

First: chain 1 A1H
Second: chain 1 Q2M
The screen value of the first is lower: 0.000554 average fractional NGS count over selection days 2 and 3 (reads of this peptide / all reads for the bait, averaged over … for the first, 0.0389 average fractional NGS count over selection days 2 and 3 (reads of this peptide / all reads for the bait, averaged over … for the second.

First: chain 1 Y7W
Second: chain 1 Q2K
The screen value of the first is lower: 0.00146 average fractional NGS count over selection days 2 and 3 (reads of this peptide / all reads for the bait, averaged over … for the first, 0.00215 average fractional NGS count over selection days 2 and 3 (reads of this peptide / all reads for the bait, averaged over … for the second.

First: chain 1 Q4F
Second: chain 1 Q2N
The screen value of the first is higher: 0.00554 average fractional NGS count over selection days 2 and 3 (reads of this peptide / all reads for the bait, averaged over … for the first, 0.000638 average fractional NGS count over selection days 2 and 3 (reads of this peptide / all reads for the bait, averaged over … for the second.

First: chain 1 N8R
Second: chain 1 P6D
The screen value of the first is higher: 0.0014 average fractional NGS count over selection days 2 and 3 (reads of this peptide / all reads for the bait, averaged over … for the first, 0.00129 average fractional NGS count over selection days 2 and 3 (reads of this peptide / all reads for the bait, averaged over … for the second.

Going from chain 1 Q2W to chain 1 S13T, the screen value falls from 0.0105 average fractional NGS count over selection days 2 and 3 (reads of this peptide / all reads for the bait, averaged over … to 0.000255 average fractional NGS count over selection days 2 and 3 (reads of this peptide / all reads for the bait, averaged over ….

Going from chain 1 M14V to chain 1 M14H, the screen value rises from 0.000202 average fractional NGS count over selection days 2 and 3 (reads of this peptide / all reads for the bait, averaged over … to 0.000243 average fractional NGS count over selection days 2 and 3 (reads of this peptide / all reads for the bait, averaged over ….

Going from chain 1 A1N to chain 1 Q2V, the screen value rises from 0.00166 average fractional NGS count over selection days 2 and 3 (reads of this peptide / all reads for the bait, averaged over … to 0.0133 average fractional NGS count over selection days 2 and 3 (reads of this peptide / all reads for the bait, averaged over ….

First: chain 1 Q11S
Second: chain 1 L15M
The screen value of the first is higher: 0.00259 average fractional NGS count over selection days 2 and 3 (reads of this peptide / all reads for the bait, averaged over … for the first, 0.000416 average fractional NGS count over selection days 2 and 3 (reads of this peptide / all reads for the bait, averaged over … for the second.

Compared with chain 1 M3I, chain 1 S13N is lower in screen value: 0.00263 average fractional NGS count over selection days 2 and 3 (reads of this peptide / all reads for the bait, averaged over … for the first, 0.000299 average fractional NGS count over selection days 2 and 3 (reads of this peptide / all reads for the bait, averaged over … for the second.

Going from chain 1 N8S to chain 1 Q2H, the screen value rises from 0.00843 average fractional NGS count over selection days 2 and 3 (reads of this peptide / all reads for the bait, averaged over … to 0.00981 average fractional NGS count over selection days 2 and 3 (reads of this peptide / all reads for the bait, averaged over ….

Going from chain 1 Q4W to chain 1 Q11M, the screen value falls from 0.00641 average fractional NGS count over selection days 2 and 3 (reads of this peptide / all reads for the bait, averaged over … to 0.00123 average fractional NGS count over selection days 2 and 3 (reads of this peptide / all reads for the bait, averaged over ….

Going from chain 1 M14L to chain 1 S13A, the screen value falls from 0.000362 average fractional NGS count over selection days 2 and 3 (reads of this peptide / all reads for the bait, averaged over … to 0.000238 average fractional NGS count over selection days 2 and 3 (reads of this peptide / all reads for the bait, averaged over ….

First: chain 1 I10Q
Second: chain 1 Y7I
The screen value of the first is higher: 0.00143 average fractional NGS count over selection days 2 and 3 (reads of this peptide / all reads for the bait, averaged over … for the first, 0.000511 average fractional NGS count over selection days 2 and 3 (reads of this peptide / all reads for the bait, averaged over … for the second.

Going from chain 1 D12Y to chain 1 P6F, the screen value falls from 0.000244 average fractional NGS count over selection days 2 and 3 (reads of this peptide / all reads for the bait, averaged over … to 0.000206 average fractional NGS count over selection days 2 and 3 (reads of this peptide / all reads for the bait, averaged over ….

Going from chain 1 Q4V to chain 1 Q2S, the screen value falls from 0.00685 average fractional NGS count over selection days 2 and 3 (reads of this peptide / all reads for the bait, averaged over … to 0.00148 average fractional NGS count over selection days 2 and 3 (reads of this peptide / all reads for the bait, averaged over ….

Going from chain 1 D12K to chain 1 M3W, the screen value rises from 0.000211 average fractional NGS count over selection days 2 and 3 (reads of this peptide / all reads for the bait, averaged over … to 0.00995 average fractional NGS count over selection days 2 and 3 (reads of this peptide / all reads for the bait, averaged over ….

Compared with chain 1 P6V, chain 1 N8F is higher in screen value: 0.000629 average fractional NGS count over selection days 2 and 3 (reads of this peptide / all reads for the bait, averaged over … for the first, 0.0014 average fractional NGS count over selection days 2 and 3 (reads of this peptide / all reads for the bait, averaged over … for the second.

First: chain 1 Q11N
Second: chain 1 M3T
The screen value of the first is lower: 0.000354 average fractional NGS count over selection days 2 and 3 (reads of this peptide / all reads for the bait, averaged over … for the first, 0.00733 average fractional NGS count over selection days 2 and 3 (reads of this peptide / all reads for the bait, averaged over … for the second.

First: chain 1 A1Q
Second: chain 1 M14W
The screen value of the first is higher: 0.00399 average fractional NGS count over selection days 2 and 3 (reads of this peptide / all reads for the bait, averaged over … for the first, 0.00243 average fractional NGS count over selection days 2 and 3 (reads of this peptide / all reads for the bait, averaged over … for the second.

Going from chain 1 G5M to chain 1 L15I, the screen value falls from 0.00218 average fractional NGS count over selection days 2 and 3 (reads of this peptide / all reads for the bait, averaged over … to 0.000248 average fractional NGS count over selection days 2 and 3 (reads of this peptide / all reads for the bait, averaged over ….

First: chain 1 Q2T
Second: chain 1 S13D
The screen value of the first is higher: 0.0042 average fractional NGS count over selection days 2 and 3 (reads of this peptide / all reads for the bait, averaged over … for the first, 0.000131 average fractional NGS count over selection days 2 and 3 (reads of this peptide / all reads for the bait, averaged over … for the second.

First: chain 1 Q4H
Second: chain 1 A1F
The screen value of the first is higher: 0.025 average fractional NGS count over selection days 2 and 3 (reads of this peptide / all reads for the bait, averaged over … for the first, 0.00358 average fractional NGS count over selection days 2 and 3 (reads of this peptide / all reads for the bait, averaged over … for the second.

For chain 1 A1Y, the screen value was 0.0126 average fractional NGS count over selection days 2 and 3 (reads of this peptide / all reads for the bait, averaged over ….
